# Results taken from paper PMC6308302, “Identification of Pharmacokinetic Markers for Guanxin Danshen Drop Pills in Rats by Combination of Pharmacokinetics, Systems Pharmacology, and Pharmacodynamic Assays” (Frontiers in Pharmacology, 2018).
# Marks after values point to notes of the source that are not given here.
# Legend:
# [1] = test system: isoprenaline-induced MI in mice; experiment: In vivo anti-MI study: isoprenaline-induced myocardial injury (ECG, H&E histology)
# [2] = Aqueous solubility test (vortexing in water); format: physicochemical; conditions: thermodynamic from solid, determined, 25 °C, 1 atm
# Experimental: Aqueous solubility (S) test of the 17 ingredients was performed by vortexing 10 mg of each ingredient in […] water in a test tube at ambient temperature and 1 atm. After vortexing for 5 min, if the solution is clear, the tested object will be considered as soluble in water. In silico assessment of the physicochemical properties governing permeation and intestinal absorption was carried out for the 17 ingredients studied. Theory aqueous solubility (S) was calculated with ALOGPS 2.1 online software via the Virtual Computational Chemistry Laboratory service (Chemoinformatics Group, Neuherberg, Germany) (VCCLAB^1). The octanol–water partition coefficient (cLogP), the total hydrogen bond count (donors and acceptors), and topological polar surface area (TPSA) were determined using the Molinspiration Property Calculator (Molinspiration Cheminformatics, Bratislava, Slovak Republic^2). Lipinski’s rule of 5 was used to predict the permeability of the compound ([Lipinski et al., 2001]).
# [3] = Stability tests in rat plasma (QC samples, HPLC-MS); conditions: n=5
# [4] = test system: Caco-2 cell monolayers; conditions: ref Lu et al., 2008, Liu et al., 2009, Hu et al., 2014, Bowles et al., 2017, cited from earlier work
# [5] = Multiple component PK study in rat plasma after p.o. GDDP (HPLC-MS); conditions: for AUC(0-inf) / AUC(0-t) / MRT inf / MRT last / Tmax / Cmax / half-life: Sprague-Dawley, rat, plasma, po
# [6] = 24h in auto-sampler vials, spiked 2 ng/mL
# [7] = 24h in auto-sampler vials, spiked 400 ng/mL
# [8] = 24h in auto-sampler vials, spiked 1600 ng/mL
# [9] = Placing plasma for 6h at 4°C, spiked 2 ng/mL
# [10] = Placing plasma for 6h at 4°C, spiked 400 ng/mL
# [11] = Placing plasma for 6h at 4°C, spiked 1600 ng/mL
# [12] = three freeze-thaw cycles, rat plasma, spiked 2 ng/mL
# [13] = three freeze-thaw cycles, rat plasma, spiked 400 ng/mL
# [14] = Caco-2 cell monolayers, from literature
structure (smiles),measurement,setting,value
"CC(C)=CCC[C@](C)(O[C@@H]1O[C@H](CO)[C@@H](O)[C@H](O)[C@H]1O)[C@H]1CC[C@]2(C)[C@@H]1[C@H](O)C[C@@H]1[C@@]3(C)CC[C@H](O)C(C)(C)[C@@H]3[C@@H](O[C@@H]3O[C@H](CO)[C@@H](O)[C@H](O)[C@H]3O)C[C@]12C [Rg1, ginsenoside Rg1]",ST segment elevations on the seventh day of the trial,"[1]; 40 mg/kg p.o. for 7 days, compared with model group, P < 0.05",significantly decreased
same,anti-MI effect (overall conclusion),"[1]; 40 mg/kg p.o. for 7 days, isoprenaline-induced MI",favorable anti-MI effect
same,ECG (lead II) findings on the fifth day of the trial,"[1]; 40 mg/kg p.o., isoprenaline 5 mg/kg on days 4 and 5",T waves reversed or decreased
same,solubility at 5 min,[2],> 10000 µg/mL
same,Stability: Measured,[3]; [6],1.69 ± 0.24 ng/mL
same,Stability: RE,[3]; [6],-15.63%
same,Stability: Measured,[3]; [7],433.65 ± 26.28 ng/mL
same,Stability: RE,[3]; [7],8.41%
same,Stability: Measured,[3]; [8],1628.29 ± 28.27 ng/mL
same,Stability: RE,[3]; [8],1.77%
same,Stability: Measured,[3]; [9],1.75 ± 0.30 ng/mL
same,Stability: RE,[3]; [9],-12.46%
same,Stability: Measured,[3]; [10],457.68 ± 22.23 ng/mL
same,Stability: RE,[3]; [10],14.42%
same,Stability: Measured,[3]; [11],1841.18 ± 22.14 ng/mL
same,Stability: RE,[3]; [11],15.07%
same,Stability: Measured,[3]; [12],1.75 ± 0.23 ng/mL
same,Stability: RE,[3]; [12],-12.60%
same,Stability: Measured,[3]; [13],456.97 ± 15.97 ng/mL
same,Stability: RE,[3]; [13],14.24%
same,Papp(apical→basolateral),[4]; [14],> 0.1^c ×10^-6 cm/s
same,Papp(basolateral→apical),[4]; [14],> 0.1^c ×10^-6 cm/s
same,apparent permeability in Caco-2 cell monolayers,[4]; previous results,> 10^-7 cm/s
same,determination in rat plasma at the planned successive PK time points,"[5]; GDDP 0.8 g/kg p.o., 5, 10, 15, 30, 45, 60, and 120 min, LOQ 1.0–1.4 ng/mL",could be determined
same,detection in rat plasma,"[5]; GDDP 0.8 g/kg p.o., at 5, 10, 15, 30, 45, or 60 min, LOD 0.5–0.7 ng/mL",could be detected
same,AUC(0-inf),[5]; 0.4 g/kg,82.7 ± 21.2 ng·h/mL
same,AUC(0-t),[5]; 0.4 g/kg,50.6 ± 2.59 ng·h/mL
same,MRT inf,[5]; 0.4 g/kg,4.07 ± 2.07 h
same,MRT last,[5]; 0.4 g/kg,1.88 ± 0.05 h
same,Tmax,[5]; 0.4 g/kg,0.38 ± 0.18 h
same,Cmax,"[5]; 0.4 g/kg, Cmax, rat plasma, GDDP 0.4 g/kg p.o. (Low dose group), n=3",25.5 ± 2.85 ng/mL
same,AUC(0-inf),[5]; 0.8 g/kg,60.9 ± 6.56 ng·h/mL
same,AUC(0-t),[5]; 0.8 g/kg,54.7 ± 8.97 ng·h/mL
same,MRT inf,[5]; 0.8 g/kg,1.75 ± 0.43 h
same,MRT last,[5]; 0.8 g/kg,1.35 ± 0.23 h
same,Tmax,[5]; 0.8 g/kg,0.09 ± 0.13 h
same,Cmax,"[5]; 0.8 g/kg, Cmax (high / low plasma drug concentrations), rats, GDDP 0.4 and 0.8 g/kg p.o., classification",> 20 ng/mL
same,Cmax,"[5]; 0.8 g/kg, Cmax, rat plasma, GDDP 0.8 g/kg p.o. (High dose group), n=3",52.9 ± 25.3 ng/mL
same,half-life,"[5]; 0.8 g/kg, t1/2 β (fast / slow elimination type), rats, GDDP 0.4 and 0.8 g/kg p.o., classification",< 2 h
same,half-life,"[5]; 0.8 g/kg, t1/2 β, rat plasma, GDDP 0.8 g/kg p.o. (High dose group), n=3",0.88 ± 0.38 h
same,Cltot,"[5]; rat plasma, GDDP 0.4 g/kg p.o. (Low dose group), n=3",510 ± 131 mL/min/kg
same,Cltot,"[5]; rat plasma, GDDP 0.8 g/kg p.o. (High dose group), n=3",1350 ± 141 mL/min/kg
